Patent US12043670B2, “Anti-BCMA antibody-drug conjugates and methods of use” (Eisai R&D Management Co., Ltd., priority 2020, dated 2024)

B1: AB200-(2Vk30)_R2-VH-v13 (antibody)
heavy: QVQLVQSGAEVKKPGSSVKVSCKASGGSFSNYWIHWVRQAPGQGLEWMGGTYRSHSDTYYAQKFKSRVTITADKSTSTAYMELSSLRSEDTAVYYCARGAIYHGYDVIENWGQGTLVTVSSASTKGPSVFPLAPSSKSTSGGTAALGCLVKDYFPEPVTVSWNSGALTSGVHTFPAVLQSSGLYSLSSVVTVPSSSLGTQTYICNVNHKPSNTKVDKKVEPKSC
light: DIQMTQSPSSLSASVGDRVTITCRASQSISSYLNWYQQKPGKAPKLLIYATSNLQIGVPSRFSGSGSGTDFTLTISSLQPEDFATYYCQQYRRIPWTFGQGTKLEIKRTVAAPSVFIFPPSDEQLKSGTASVVCLLNNFYPREAKVQWKVDNALQSGNSQESVTEQDSKDSTYSLSSTLTLSKADYEKHKVYACEVTHQGLSSPVTKSFNRGEC
B2: AB200-(2Vk30)_R2-VH-v30 (antibody)
heavy: B1 heavy with S28T, G50A, Y59N
light: B1 light
B3: AB200-(2Vk30)_R2-VH-v59 (antibody)
heavy: B1 heavy with S28T, S54I
light: B1 light
B4: AB200-(2Vk30)_R2-VH-v23 (antibody)
heavy: B1 heavy with S28T, A61N, F64Y, Y102F, E109D
light: B1 light
B5: AB200-(2Vk30)_R2-VH-v37 (antibody)
heavy: B1 heavy with S28T, G50A, H55Q, A61N, F64Y, I101V, E109D
light: B1 light
B6: AB200-(2Vk30)_R2-VH-v45 (antibody)
heavy: B1 heavy with S28T, F29Y, G50A, S54I, D57T, Y59N, A61N, Y102F, E109D
light: B1 light
B7: AB200-(2Vk30)_R2-VH-v40 (antibody)
heavy: B1 heavy with S28T, S30T, G50A, S54I, D57T, Y105F, E109D
light: B1 light
B8: AB200-(2Vk30)_R2-VH-v67 (antibody)
heavy: B1 heavy with S28T, G50A, S54I, D57T, A61N, Q62E, I101V, E109D
light: B1 light
B9: AB200-(2Vk30)_R2-VH-v19 (antibody)
heavy: B1 heavy with S28T, D57T, A61N, Y105F, E109D
light: B1 light
B10: AB200-(2Vk30)_R2-VH-v51 (antibody)
heavy: B1 heavy with S54I, H55Q, A61N
light: B1 light
B11: AB200-(2Vk30)_R2-VH-v4 (antibody)
heavy: B1 heavy with S28T, S30T, G50A, Y59N
light: B1 light
B12: AB200-(2Vk30)_R2-VH-v16 (antibody)
heavy: B1 heavy with Y59N, A61N, Y102F, E109D
light: B1 light
B13: AB200-(2Vk30)_R2-VH-v31 (antibody)
heavy: B1 heavy with S28T, G50A, H55Q, Y59N, A61N, I101V, E109D
light: B1 light
B14: AB200-(2Vk30)_R2-VH-v43 (antibody)
heavy: B1 heavy with S28T, S30T, S54I, Y105F, E109D
light: B1 light
B15: AB200-(2Vk30)_R2-VH-v39 (antibody)
heavy: B1 heavy with S28T, S30T, G50A, S54I, Q62E, Y102F, E109D
light: B1 light
B16: AB200-(2Vk30)_R2-VH-v65 (antibody)
heavy: B1 heavy with S28T, G50A, S54I, H55Q, D57T, A61N, Y105F, E109D
light: B1 light
B17: AB200-(2Vk31)_R2-VH-v17 (antibody)
heavy: B1 heavy with G50A, H55Q, Y102F, E109D
light: B1 light with Y91F, I94L
B18: AB200-(2Vk31)_R2-VH-v12 (antibody)
heavy: B1 heavy with S28T, F29Y, G50A, D57T, A61N, F64Y, Y105F, E109D
light: B1 light with Y91F, I94L
B19: AB200-(2Vk31)_R2-VH-v18 (antibody)
heavy: B1 heavy with G50A, Q62E, I101V, E109D
light: B1 light with Y91F, I94L
B20: AB200-(2Vk31)_R2-VH-v73 (antibody)
heavy: B1 heavy with S28T, G50A, S54I, F64Y, I101V, E109D
light: B1 light with Y91F, I94L
B21: AB200-(2Vk31)_R2-CDR1-hs-v3 (antibody)
heavy: B1 heavy with S28T, N31S, W33A, H35S, G50A, H55Q, A61N, F64Y, I101V, E109D
light: B1 light with Y91F, I94L
B22: AB200-(2Vk31)_R2-CDR2-hs-v3 (antibody)
heavy: QVQLVQSGAEVKKPGSSVKVSCKASGGTFTNYWIHWVRQAPGQGLEWMGGIIPIFGTANYAQKFQGRVTITADKSTSTAYMELSSLRSEDTAVYYCARGAVYHGYDVIDNWGQGTLVTVSSASTKGPSVFPLAPSSKSTSGGTAALGCLVKDYFPEPVTVSWNSGALTSGVHTFPAVLQSSGLYSLSSVVTVPSSSLGTQTYICNVNHKPSNTKVDKKVEPKSC
light: B1 light with Y91F, I94L
B23: AB200-(2Vk31)_R2-VH-v2 (antibody)
heavy: B1 heavy with S28T, S30T, G50A, D57T, Y59N, A61N, I101V, E109D
light: B1 light with Y91F, I94L
B24: AB200-(2Vk31)_R2-CDR2-hs-v1 (antibody)
heavy: B22 heavy with V101I, Y102F
light: B1 light with Y91F, I94L
B25: AB200-(2Vk31)_R2-VH-v66 (antibody)
heavy: B1 heavy with S28T, G50A, S54I, D57T, A61N, F64Y, Y102F, E109D
light: B1 light with Y91F, I94L

Assay: ThermoFluor thermostability (Tm)
Assay type: physicochemical
Details: Fab fragment; heavy chain clone paired with light chain AB200-(2Vk30)

Row | Molecule | Tm [°C]
1 | B1 | 78.570
2 | B2 | 77.090
3 | B3 | 77.316
4 | B4 | 79.432
5 | B5 | 81.855
6 | B6 | 78.131
7 | B7 | 79.807
8 | B8 | 82.324
9 | B9 | 82.102
10 | B10 | 79.046
11 | B11 | 77.268
12 | B12 | 78.165
13 | B13 | 79.955
14 | B14 | 77.757
15 | B15 | 78.621
16 | B16 | 81.557

Same assay, conditions: Fab fragment; heavy chain clone paired with light chain AB200-(2Vk31)

Row | Molecule | Tm [°C]
17 | B17 | 81.682
18 | B18 | 83.892
19 | B19 | 83.629
20 | B20 | 81.181
21 | B21 | 78.565
22 | B22 | 85.503
23 | B23 | 84.104
24 | B24 | 85.076
25 | B25 | 82.876

Positions count from the first letter of the chain named.
